The source of these data is patent EP4671282A1 (Jiangsu Hengrui Pharmaceuticals Co., Ltd., dated 2025).

As usually defined, the EC50 is the concentration giving half of the maximal effect. For orientation: Kd means a measure of binding affinity in units of concentration. By koff is commonly meant the first-order rate constant of dissociation. Broadly, the kon is the second-order rate constant of association.

Like-named read-outs stand apart in the source and are kept apart here.

Experiment [1] has as its target T1, human IL-36R full-length protein stably expressed on CHO-K1 cells (human, UniProt Q9HB29 20-575).
T1 construct: FlpIn CHO-K1 line expressing the full-length protein; also called human IL-36R on the surface of CHO-K1 cells; CHO-K1 cells overexpressing human IL-36R
T1 sequence: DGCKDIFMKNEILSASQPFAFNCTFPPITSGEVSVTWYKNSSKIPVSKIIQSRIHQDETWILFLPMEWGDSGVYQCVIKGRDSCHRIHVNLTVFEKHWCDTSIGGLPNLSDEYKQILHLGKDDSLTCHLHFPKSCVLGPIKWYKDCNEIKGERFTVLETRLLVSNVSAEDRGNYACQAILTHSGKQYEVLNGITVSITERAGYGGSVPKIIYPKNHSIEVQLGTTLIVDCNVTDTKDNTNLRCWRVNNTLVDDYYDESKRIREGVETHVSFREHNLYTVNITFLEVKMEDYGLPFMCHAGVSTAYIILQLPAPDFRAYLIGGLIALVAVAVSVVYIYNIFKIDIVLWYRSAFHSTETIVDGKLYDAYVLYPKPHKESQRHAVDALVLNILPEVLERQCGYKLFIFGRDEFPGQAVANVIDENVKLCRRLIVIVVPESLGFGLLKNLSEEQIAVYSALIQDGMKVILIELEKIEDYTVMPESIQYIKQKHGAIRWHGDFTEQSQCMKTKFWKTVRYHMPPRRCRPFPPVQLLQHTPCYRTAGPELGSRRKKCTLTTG
Kind of experiment: FACS, CHO-K1 cells overexpressing human IL-36R. A general note: A flow cytometer gives signals particle by particle.

The target in experiment [2] is T1, human IL-36R full-length protein stably …. Kind of experiment: FACS, CHO-K1 cells overexpressing human IL-36R. The source holds these as a separate data set.
Experiment [3] addresses T2, IL-36R on human skin squamous cell line A431 (human, UniProt Q9HB29 20-575).
T2 sequence (looked up): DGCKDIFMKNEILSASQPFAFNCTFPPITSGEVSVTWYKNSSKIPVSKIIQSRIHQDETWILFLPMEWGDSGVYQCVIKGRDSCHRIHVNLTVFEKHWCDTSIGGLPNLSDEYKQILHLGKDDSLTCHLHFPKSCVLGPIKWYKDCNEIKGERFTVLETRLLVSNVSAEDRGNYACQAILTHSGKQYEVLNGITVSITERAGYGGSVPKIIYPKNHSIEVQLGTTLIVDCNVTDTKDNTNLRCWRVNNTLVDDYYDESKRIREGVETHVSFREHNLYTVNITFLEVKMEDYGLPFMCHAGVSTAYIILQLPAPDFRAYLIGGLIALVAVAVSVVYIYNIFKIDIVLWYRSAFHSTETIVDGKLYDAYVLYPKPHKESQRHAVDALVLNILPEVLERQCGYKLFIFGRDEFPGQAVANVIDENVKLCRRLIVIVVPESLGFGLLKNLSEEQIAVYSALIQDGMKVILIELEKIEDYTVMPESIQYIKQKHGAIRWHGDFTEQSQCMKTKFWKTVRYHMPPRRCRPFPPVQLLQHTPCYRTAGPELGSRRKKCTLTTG
Briefly: cell-based or functional assay.

For experiment [4], the target named is T1, human IL-36R full-length protein stably …. Kind of experiment: FACS, CHO-K1 cells overexpressing human IL-36R. This is another data set of the same source.
Experiment [5] has as its target T3, Human IL-36R protein (His + Avi Tag), Kactus IL1-HM4L2 (human, UniProt Q9HB29 20-335).
T3 construct: Bought protein; also called human IL-36R antigen protein; Human IL-36R antigen
T3 sequence: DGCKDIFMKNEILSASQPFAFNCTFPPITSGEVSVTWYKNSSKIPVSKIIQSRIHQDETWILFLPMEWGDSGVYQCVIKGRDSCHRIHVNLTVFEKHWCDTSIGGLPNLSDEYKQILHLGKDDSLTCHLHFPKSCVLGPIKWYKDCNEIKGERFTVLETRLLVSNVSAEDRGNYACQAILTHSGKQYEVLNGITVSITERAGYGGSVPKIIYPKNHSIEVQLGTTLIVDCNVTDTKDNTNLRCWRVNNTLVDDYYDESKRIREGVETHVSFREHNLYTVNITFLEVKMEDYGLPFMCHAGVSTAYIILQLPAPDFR
Kind of experiment: SPR (Biacore 8K), antibody captured by anti-human IgG Fc, IL-36R as analyte. In general terms: In SPR one partner is held on a chip, and binding of the other changes the refractive index at the surface.

B1: VHH162_Hu09 VHH-Fc antibody (human IgG4 Fc, S228P) (Fc fusion)
chain: DVQLVESGGGLVQPGGSLRLSCAASGYSYRTQCLGWYRQAPGKQREAVATISGGGTSTYYSDSVKGRFTISQDNSKTTVYLQMNSLRAEDTAVYYCAAGLSVLGSWCHGGSSYEYTYSGQGTLVTVSS[sequence of human IgG4 Fc with S228P (EU numbers) omitted]
notes: VHH linked to human IgG4 Fc (hinge, S228P); no linker is named
Consider B1, for which, in experiment [1], the EC50 came to 0.48 nM and the “Maximum MFI” value was 5340 MFI.

B2: VHH162_Hu11 VHH-Fc antibody (human IgG4 Fc, S228P) (Fc fusion)
chain: EVQLVESGGGLVQPGGSLRLSCAASGYSYRTQCLGWYRQAPGKQREAVATISGGGTSTYYSDSVKGRFTISQDNSKTTVYLQMNSLRAEDTAVYYCAKGLSVLGSWCHGGSSYEYTYSGQGTLVTVSS[sequence of human IgG4 Fc with S228P (EU numbers) omitted]
notes: as for B1
On to B2, for which, in experiment [2], the EC50 came out at 0.63 nM and the “Maximum MFI” value was found to be 6950 MFI. Also, the “IL-36α-induced A431 IL-8 secretion IC50” value in experiment [3] was 0.14 nM. In addition, in experiment [4], the EC50 was found to be 0.88 nM and the “Maximum MFI” value was 6210 MFI. Besides, in experiment [5], the dissociation constant Kd came out at 31.1 nM, the koff worked out at 0.000146 s⁻¹ and the kon amounted to 4700 M⁻¹ s⁻¹.

B3: VHH162_Hu08 VHH-Fc antibody (human IgG4 Fc, S228P) (Fc fusion)
chain: DVQLVESGGGLVQPGGSLRLSCAASGYSYRTQCLGWYRQAPGKQREAVSTISGGGTSTYYSDSVKGRFTISQDNAKTTVYLQMNSLRAEDTAVYYCAAGLSVLGSWCHGGSSYEYTYSGQGTLVTVSS[sequence of human IgG4 Fc with S228P (EU numbers) omitted]
notes: as for B1
Regarding B3, in experiment [1], the EC50 was found to be 0.66 nM and the “Maximum MFI” value was 6010 MFI.

B4: VHH213_Hu01 VHH-Fc antibody (human IgG4 Fc, S228P) (Fc fusion)
chain: EVQLVESGGGLVQPGGSLRLSCAASGNTYSRYCMGWFRQAPGKELVGVAAIDSDGDTSYADSVEGRFTISKDNAKNTLYLQMNSLRAEDTAVYYCAADFTPSAPPRMGSGGYCFGDYWGQGTLVTVSS[sequence of human IgG4 Fc with S228P (EU numbers) omitted]
notes: as for B1
As for B4, in experiment [1], the half-maximal effective concentration (EC50) turned out to be 0.4 nM and the “Maximum MFI” value is 7070 MFI. In addition, in experiment [2], the EC50 is 0.41 nM and the “Maximum MFI” value is 7670 MFI.

B5: VHH213 VHH-Fc antibody (human IgG4 Fc, S228P) (Fc fusion)
chain: EVQLVESGGGSVQAGGSLRLSCAASGNTYSRYCMGWFRQAPGKEREGVAAIDSDGDTSYADSVEGRFTISKDNAKNTLYLQMNSLKPEDTAMYYCAADFTPSAPPRMGSGGYCFGDYWGQGTQVTVSS[sequence of human IgG4 Fc with S228P (EU numbers) omitted]
notes: as for B1
For the molecule B5, in experiment [1], the EC50 stood at 0.57 nM and the “Maximum MFI” value worked out at 6920 MFI.

B6: VHH213_Hu07 VHH-Fc antibody (human IgG4 Fc, S228P) (Fc fusion)
chain: EVQLVESGGGLVQPGGSLRLSCAASGNTFSRYCMGWFRQAPGKELVGVAAIDSDGDTSYADSVEGRFTISRDNAKNTLYLQMNSLRAEDTAVYYCAADFTPSAPPRMGSGGYCFGDYWGQGTLVTVSS[sequence of human IgG4 Fc with S228P (EU numbers) omitted]
notes: as for B1
B6: in experiment [2], it took 0.53 nM to reach a half-maximal effect (EC50) and the “Maximum MFI” value is 7780 MFI. For the same molecule, the “IL-36α-induced A431 IL-8 secretion IC50” value in experiment [3] was found to be 0.13 nM. In addition, in experiment [4], the EC50 worked out at 0.97 nM and the “Maximum MFI” value came to 7400 MFI. In experiment [5], the Kd stood at 8.26 nM, the koff was 9.39e-05 s⁻¹ and the kon was found to be 11400 M⁻¹ s⁻¹.
